# From publication PMC12136788
# The list shows a part of the results.
# T1: UNK ZnF1-3 (human, UniProt Q9C0B0 31-174)
# T1 sequence: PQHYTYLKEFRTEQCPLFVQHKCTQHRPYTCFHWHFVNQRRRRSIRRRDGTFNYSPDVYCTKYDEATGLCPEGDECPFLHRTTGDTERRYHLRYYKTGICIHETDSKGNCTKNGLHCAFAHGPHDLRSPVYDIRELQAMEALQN
# B1: chr13:107772667:107772668:-_ENSMUSG00000021693_ENSMUST00000022204|mus_hu|FALSE|FALSE (ssRNA)
# RNA: GGGAGUUCUACAGUCCGACGAUCCAUUUCAUUAGGAGCUGAGUCAUCAAAGGCAUAAUCAAAACGAAAUGUUUGGUUUUCUAGGUACCUUGUUAAAUCUACUUUUUGUUUUGGUUCAUGUACCAUCACAACAUCUUUACUAGGCAACAGAGGAUUGAGCAUCA
# B2: 62888798_62888918_752_CDS_ENSG00000061987_ENST00000546600|human|control|control (ssRNA)
# RNA: GGGAGUUCUACAGUCCGACGAUCUGCCUCAUCAUGAACUACUGUAUUGGUUGUUAAAAGAACAAGAACUGUUUGAAGUAGCUUAAGUUCUUCAAGACUAUUCUCCAUUAGCUGCCAAAGCAUGUUAAUUAUAUUUCCAGCUGCCAACAGAGGAUUGAGCAUCA
# B3: chr1:202722107:202722108:-_ENSG00000117139_ENST00000367264|hu_hu|motif|central (ssRNA)
# RNA: GGGAGUUCUACAGUCCGACGAUCCAUGAUGGUCACAAGCUGAUGGAGGAGAUCCGGCUGGGACACAAAGAGUUCUGGAGCGGGUUUCUUCAUUACAUUUUCUAGCUGCUCAGCAGCAUACCCUGGGACUCCAUACCAGGUUUUCAACAGAGGAUUGAGCAUCA
# B4: chr1:58468927:58468928:-_ENSMUSG00000026034_ENSMUST00000148330|mus_mus|mus_mus_mus_hu_False|68_88 (ssRNA)
# RNA: GGGAGUUCUACAGUCCGACGAUCAAUUACUGAAAAAGAUGUUCAUUUAUUUGGUUUUGUACUUAAUUUAAUAAAGCACCCAAACAAAAUAAACAUGGCAAUAUAAAAAUGUUAAGAAUUUACAAAGCUGUACAAAAUAACUUACAACAGAGGAUUGAGCAUCA
# B5: 30145919_30148471_1160_CDS_ENSMUSG00000024817_ENSMUST00000025739|mouse|control|control (ssRNA)
# RNA: GGGAGUUCUACAGUCCGACGAUCGGAAAUGGGAUGGGCUCCAGGCUUCUCAAUCUUGAAGAUUUCAUCUACAGACAUCACUCGGCAGUCAUUUAAUGUGCCUUCAGAGCCCCCCAGGAAAACUUUCACACGAACUUCCUUUUUCAACAGAGGAUUGAGCAUCA
# B6: chr14:102446093:102446094:+_ENSG00000197102_ENST00000360184|hu_mus|FALSE|FALSE (ssRNA)
# RNA: GGGAGUUCUACAGUCCGACGAUCCUCUGGGAUCUCAAUGUUCUGCUGCAGGUGGAGGAGUCCCAUUUCAAGCUCUGCAAUCUUUUUUUCAACUGAAGGAGCCAUCUUAUCACCAUCCCUGUCUGCUUUGCCAGACUCUCUGAUCAACAGAGGAUUGAGCAUCA
# B7: chr15:37385894:37385895:-_ENSG00000134138_ENST00000382766|hu_mus|FALSE|FALSE (ssRNA)
# RNA: GGGAGUUCUACAGUCCGACGAUCGCUUCCAUCUCUCUCAUCAAUCACGAGGUCAAUGGGCAUUUUUCCCUUCAAACAGCUAAUGUACCGGUGGCAGAAGUUAUCACAUAGUUCGUGGACCUUUUCUAACUCCAGAAGAUGAAACAACAGAGGAUUGAGCAUCA
# B8: chr1:163117127:163117128:-_ENSG00000143248_ENST00000313961|hu_mus|hu_hu_hu_mus_False|68_108 (ssRNA)
# RNA: GGGAGUUCUACAGUCCGACGAUCUGCGGGUUAUUAUGUAACUCAACUCACAGGGCAACUUUUGGAAGCCUGGCUAAAUGACUACUUGAUUAGCUCCUUAUAAAAUUCAGAGCGCACAAAGCGGGGCAGAGAAUCCUUCUCCAUCAACAGAGGAUUGAGCAUCA
# B9: 101243506_101243626_2615_CDS_ENSMUSG00000042035_ENSMUST00000043983|mouse|control|control (ssRNA)
# RNA: GGGAGUUCUACAGUCCGACGAUCUCGCCACAGCUCUGCCACGCACUGGUACUUGCCUGCCUCUGUGUCACUGGCCCGGCUGAUGCUCAGGCGGACAUUGUUGCUGGACUCAGCCUUCUCAAUGGCAGUCCGAGUUCGGAAAGUCAACAGAGGAUUGAGCAUCA
# B10: chr14:76904430:76904431:+_ENSMUSG00000022010_ENSMUST00000022587|mus_mus|mus_mus_mus_hu_True|8_18 (ssRNA)
# RNA: GGGAGUUCUACAGUCCGACGAUCUGCAGCCAAAAACACCCUCGUGGAAAAAAAGAGGGAACACCAGCAGCCUUGUAUAAGCUAGAUAAAAUCUUCUGGCUUUCCGCAGCCCAGGGAGUGAGAACGGUGGUGCUGGCUAAUUUACAACAGAGGAUUGAGCAUCA
# B11: chr11:118888195:118888196:-_ENSG00000118181_ENST00000527673|hu_mus|FALSE|FALSE (ssRNA)
# RNA: GGGAGUUCUACAGUCCGACGAUCCUUAUAGUUCGGAACCUCCUUACAGAGCUUGUCGUAUGUCGCUUUGUCGAACAGGACAAGAUUGUUCAACUUGUCCCGAACUUUGCCUUUGGACCACUUCUUCUUCUUGGCCUUGCCACCCAACAGAGGAUUGAGCAUCA
# B12: chr13:67002414:67002415:-_ENSMUSG00000021520_ENSMUST00000021993|mus_hu|FALSE|FALSE (ssRNA)
# RNA: GGGAGUUCUACAGUCCGACGAUCCUCUUUAGGCAAGAUCUGAUGCUUCAAGUUCAGGUCCAGUGCCCUCUUAAUGCGAAACAUCCUGUCAUUAUAAAGGUUCUCAGGAAGUCUUCUUAUGGCUUCUUUUACAUCUUCAUCCUCCAACAGAGGAUUGAGCAUCA
# B13: 98688603_98690009_4302_CDS_ENSMUSG00000048154_ENSMUST00000023741|mouse|control|control (ssRNA)
# RNA: GGGAGUUCUACAGUCCGACGAUCCACGAUACACUCCACACAACGCCAGCCCUUCAGCAGCAUCACCUUGGUGAUCUUGCUGUUGACACAGUACGGGUGAUAGCACUGAGAACACUGUGAACAGGCCAAGAGGUGGCCCUCAGCCAACAGAGGAUUGAGCAUCA
# B14: chr17:23954396:23954397:+_ENSMUSG00000039218_ENSMUST00000088621|mus_hu|FALSE|FALSE (ssRNA)
# RNA: GGGAGUUCUACAGUCCGACGAUCCUCUUUUGAUUCAGCAGUCUCCAAUCUACUCUGCCCCAAGAGAGAAUUCGAGUCCACUGUAGGAUAUGAAGAAGAGUCAGACUGGAACCUGCUCUGCUCAGGAGACAUUCCAGAUUUCAACAACAGAGGAUUGAGCAUCA
# Molecular target: T1, UNK ZnF1-3
# Test: nsRBNS (natural sequence RNA bind-n-seq); RBNS binding buffer (assumed for nsRBNS): 25 mM Tris pH 7.5, 150 mM KCl, 3 mM MgCl2, 0.01% Triton X-100, 500 ug/ml BSA, 20 U/ml SUPERase-In, 4 C; UNK is unkempt and MSI1 is Musashi-1; names of the RNAs are library labels; protein concentration not given here; high values mean tight binding
row,Binder,binding signal [enrichment R]
1,B1,0.78
2,B2,0.996
3,B3,1.09
4,B4,1.17
5,B5,0.912
6,B6,0.677
7,B7,0.878
8,B8,0.936
9,B9,0.739
10,B10,1.82
11,B11,0.467
12,B12,0.492
13,B13,0.873
14,B14,0.817
